Assay results reported in the supplement of paper PMC12217912.
The other results are listed elsewhere or left out. Sequences were assembled here from the parent chain. Inactive controls read about 0.05.

B1: TEV protease; numbered along this chain (parent)
chain: MGESLFKGPRDYNPISSSICHLTNESDGHTTSLYGIGFGPFIITNKHLFRRNNGTLVVQSLHGVFKVKDTTTLQQHLVDGRDMIIIRMPKDFPPFPQKLKFREPQREERICLVTTNFQTKSMSSMVSDTSCTFPSGDGIFWKHWIQTKDGQCGSPLVSTRDGFIVGIHSASNFTNTNNYFTSVPKNFMELLTNQEAQQWVSGWRLNADSVLWGGHKVFMVKPEEPFQPVKEATQL

Variants of: B1
Assay: raw area under fraction-flipped curve 0-4 h after induction (AUC4h, not background-subtracted), DNA-recorder readout of cleavage of the substrate (dimensionless); higher = more cleavage of the substrate by the protease variant
Details: temperature: 34 °C; time window: 0-4 h after rhamnose induction
Protocol: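 In vivo DNA recorder in E. coli TOP10(DE3) ΔrhaA at 34 °C. Each TEVp single-site mutant (parent TEVp 0) is paired with a single-site variant of the 7-mer TEVs (canonical ENLYFQ|S). The substrate sits between flexible linkers in a Bxb1-sfGFP-TEVs-SsrA fusion, so cleavage stabilises Bxb1 and speeds flipping of a recombination array, read by NGS. The value is the raw area under the fraction-flipped curve over 0-4 h after rhamnose induction (AUC4h), with ≥20 reads per time point. It is not background-subtracted; inactive controls average about 0.047.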
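Also: Bxb1 expression induced with 0.2% (w/v) L-rhamnose at OD600 near 0.5, cultures sampled hourly, flipped fraction per protease–substrate barcode pair counted by paired-end Illumina sequencing.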

Row | Variant | area with substrate ENCYFQS | area with substrate ENDYFQS | area with substrate ENEYFQS | area with substrate ENFYFQS | area with substrate ENHYFQS | area with substrate ENIYFQS | area with substrate ENKYFQS | area with substrate ENMYFQS | area with substrate ENNYFQS | area with substrate ENQYFQS | area with substrate ENRYFQS | area with substrate ENSYFQS | area with substrate ENTYFQS | area with substrate ENVYFQS | area with substrate ENYYFQS | area with substrate ENGYFQS | area with substrate ENWYFQS | area with substrate ENPYFQS
1 | MGESLFKGPRDYNPISSSICHLTNASDGHTTSLYGIGFGPFIITNKHLFRRNNGTLVVQSLHGVFKVKDTTTLQQHLVDGRDMIIIRMPKDFPPFPQKLKFREPQREERICLVTTNFQTKSMSSMVSDTSCTFPSGDGIFWKHWIQTKDGQCGSPLVSTRDGFIVGIHSASNFTNTNNYFTSVPKNFMELLTNQEAQQWVSGWRLNADSVLWGGHKVFMVKPEEPFQPVKEATQL [E25A] | 0.0766 | 0.0654 | 0.0571 | 0.0374 | 0.0318 | 0.0866 | 0.0576 | 0.0961 | 0.0653 | 0.0588 | 0.043 | 0.0578 | 0.0537 | 0.077 | 0.0735 | – | – | –
2 | MGESLFKGPRDYNPISSSICHLTNESDGWTTSLYGIGFGPFIITNKHLFRRNNGTLVVQSLHGVFKVKDTTTLQQHLVDGRDMIIIRMPKDFPPFPQKLKFREPQREERICLVTTNFQTKSMSSMVSDTSCTFPSGDGIFWKHWIQTKDGQCGSPLVSTRDGFIVGIHSASNFTNTNNYFTSVPKNFMELLTNQEAQQWVSGWRLNADSVLWGGHKVFMVKPEEPFQPVKEATQL [H29W] | 0.0752 | 0.0602 | 0.0646 | – | 0.0666 | – | 0.0649 | 0.0848 | 0.0529 | 0.0646 | 0.0468 | 0.0656 | 0.0834 | 0.0891 | – | 0.062 | 0.0593 | –
3 | MGESLFKGPRDYNPISSSICHLTNESDGQTTSLYGIGFGPFIITNKHLFRRNNGTLVVQSLHGVFKVKDTTTLQQHLVDGRDMIIIRMPKDFPPFPQKLKFREPQREERICLVTTNFQTKSMSSMVSDTSCTFPSGDGIFWKHWIQTKDGQCGSPLVSTRDGFIVGIHSASNFTNTNNYFTSVPKNFMELLTNQEAQQWVSGWRLNADSVLWGGHKVFMVKPEEPFQPVKEATQL [H29Q] | 0.0856 | 0.0674 | 0.0503 | – | 0.0637 | – | – | – | – | 0.0571 | 0.0742 | 0.0578 | – | – | 0.0574 | 0.0541 | – | 0.0508
4 | MGESLFKGPRDYNPISSSICHLTNESDGHTTSLYMIGFGPFIITNKHLFRRNNGTLVVQSLHGVFKVKDTTTLQQHLVDGRDMIIIRMPKDFPPFPQKLKFREPQREERICLVTTNFQTKSMSSMVSDTSCTFPSGDGIFWKHWIQTKDGQCGSPLVSTRDGFIVGIHSASNFTNTNNYFTSVPKNFMELLTNQEAQQWVSGWRLNADSVLWGGHKVFMVKPEEPFQPVKEATQL [G35M] | 0.0515 | – | – | – | 0.0381 | 0.0591 | – | – | – | – | – | 0.0614 | – | – | – | 0.0668 | – | –
5 | MGESLFKGPRDYNPISSSICHLTNESDGHTTSLYLIGFGPFIITNKHLFRRNNGTLVVQSLHGVFKVKDTTTLQQHLVDGRDMIIIRMPKDFPPFPQKLKFREPQREERICLVTTNFQTKSMSSMVSDTSCTFPSGDGIFWKHWIQTKDGQCGSPLVSTRDGFIVGIHSASNFTNTNNYFTSVPKNFMELLTNQEAQQWVSGWRLNADSVLWGGHKVFMVKPEEPFQPVKEATQL [G35L] | 0.0489 | 0.0285 | – | – | – | 0.0505 | – | 0.0347 | – | – | 0.038 | – | – | – | – | 0.0802 | – | –
6 | MGESLFKGPRDYNPISSSICHLTNESDGHTTSLYGIGFGPFIITNKHLFRRNNGTLVVQSLHFVFKVKDTTTLQQHLVDGRDMIIIRMPKDFPPFPQKLKFREPQREERICLVTTNFQTKSMSSMVSDTSCTFPSGDGIFWKHWIQTKDGQCGSPLVSTRDGFIVGIHSASNFTNTNNYFTSVPKNFMELLTNQEAQQWVSGWRLNADSVLWGGHKVFMVKPEEPFQPVKEATQL [G63F] | 0.0548 | 0.059 | 0.0567 | 0.0374 | – | 0.119 | – | 0.0761 | 0.0429 | 0.0613 | 0.0702 | 0.0718 | 0.0681 | 0.0717 | 0.0384 | – | – | –
7 | MGESLFKGPRIYNPISSSICHLTNESDGHTTSLYGIGFGPFIITNKHLFRRNNGTLVVQSLHGVFKVKDTTTLQQHLVDGRDMIIIRMPKDFPPFPQKLKFREPQREERICLVTTNFQTKSMSSMVSDTSCTFPSGDGIFWKHWIQTKDGQCGSPLVSTRDGFIVGIHSASNFTNTNNYFTSVPKNFMELLTNQEAQQWVSGWRLNADSVLWGGHKVFMVKPEEPFQPVKEATQL [D11I] | 0.0686 | 0.0549 | – | – | 0.0656 | – | – | 0.0676 | 0.0786 | 0.0698 | 0.0637 | 0.0561 | 0.0661 | 0.0698 | 0.0601 | – | – | 0.0522
8 | MGESLFKGPRDYNPISSSICHLTNESDGHTTSLYGIGFGPFIIQNKHLFRRNNGTLVVQSLHGVFKVKDTTTLQQHLVDGRDMIIIRMPKDFPPFPQKLKFREPQREERICLVTTNFQTKSMSSMVSDTSCTFPSGDGIFWKHWIQTKDGQCGSPLVSTRDGFIVGIHSASNFTNTNNYFTSVPKNFMELLTNQEAQQWVSGWRLNADSVLWGGHKVFMVKPEEPFQPVKEATQL [T44Q] | 0.0424 | 0.0459 | 0.0466 | – | 0.0376 | – | 0.0521 | 0.032 | 0.049 | 0.0468 | – | – | 0.0358 | – | 0.038 | 0.0431 | – | –
9 | MGPSLFKGPRDYNPISSSICHLTNESDGHTTSLYGIGFGPFIITNKHLFRRNNGTLVVQSLHGVFKVKDTTTLQQHLVDGRDMIIIRMPKDFPPFPQKLKFREPQREERICLVTTNFQTKSMSSMVSDTSCTFPSGDGIFWKHWIQTKDGQCGSPLVSTRDGFIVGIHSASNFTNTNNYFTSVPKNFMELLTNQEAQQWVSGWRLNADSVLWGGHKVFMVKPEEPFQPVKEATQL [E3P] | 0.0608 | – | 0.0581 | 0.0503 | – | 0.122 | – | – | 0.0652 | 0.0627 | 0.0713 | 0.052 | – | 0.078 | – | 0.0568 | – | 0.0622
10 | MGESLFKGPRDYNPISSSICHLTNESDGHTTSLYGIGFGPFIITNKALFRRNNGTLVVQSLHGVFKVKDTTTLQQHLVDGRDMIIIRMPKDFPPFPQKLKFREPQREERICLVTTNFQTKSMSSMVSDTSCTFPSGDGIFWKHWIQTKDGQCGSPLVSTRDGFIVGIHSASNFTNTNNYFTSVPKNFMELLTNQEAQQWVSGWRLNADSVLWGGHKVFMVKPEEPFQPVKEATQL [H47A] | 0.0557 | – | – | 0.0358 | – | 0.0652 | – | 0.0558 | – | 0.0484 | – | – | 0.0705 | 0.0649 | – | – | 0.0016 | 0.0703
